Results: the antibiotic and cytotoxicity screens of Wong et al. (2023)
This is one part of the list.

Assays:
HSkMC = human skeletal muscle cells; assay: cytotoxicity call (relative viability < 0.9); settings: 10 µM
HepG2 = assay: cytotoxicity call (relative viability < 0.9); settings: 10 µM
S. aureus RN4220 = assay: growth inhibition call (relative growth <= 0.2); settings: 50 µM

SMILES | cytotoxicity call (HSkMC) | cytotoxicity call (HepG2) | growth inhibition call (S. aureus RN4220)
C[C@@H]1CN([C@@H](C)CO)C(=O)c2cccc(NC(=O)c3nc4ccccc4s3)c2O[C@H]1CN(C)Cc1ccc(C(=O)Nc2ccccc2N)cc1 | inactive | inactive | inactive
S=C=Nc1ccc(N=C=S)cc1 | inactive | inactive | inactive
C[C@@H]1CCCCO[C@H](CN(C)S(=O)(=O)c2ccccc2)[C@H](C)CN([C@H](C)CO)C(=O)c2cc(NC(=O)Nc3ccc(C(F)(F)F)cc3)ccc2O1 | inactive | inactive | inactive
Cc1nn(C)cc1NC(=O)C[C@H]1CC[C@@H]2[C@H](COc3ccc(NC(=O)C4CCOCC4)cc3C(=O)N2C)O1 | inactive | inactive | inactive
NS(=O)(=O)c1ccc2c(c1)COC2 | inactive | inactive | inactive
O=C(NCc1ccccc1)OCCO | inactive | inactive | inactive
C[C@@H]1CN([C@@H](C)CO)C(=O)Cc2cc(NC(=O)Nc3ccc4c(c3)OCO4)ccc2O[C@@H]1CN(C)Cc1ccc(Oc2ccccc2)cc1 | inactive | active | inactive
CN(CP(=O)(O)CN1CCOCC1)S(C)(=O)=O | inactive | inactive | inactive
COc1ccc(NC(=O)Nc2ccc3c(c2)C(=O)N([C@H](C)CO)C[C@H](C)[C@@H](CN(C)C(=O)Nc2ccc4c(c2)OCO4)OCCCC[C@H](C)O3)cc1 | inactive | active | inactive
O=C(C[C@@H]1CC=CC[C@H](NC(=O)OCC2c3ccccc3-c3ccccc32)C(=O)OCCNC1=O)NCCO | inactive | inactive | inactive
Cc1ccc(S(=O)(=O)N(C)C[C@H]2Oc3ccc(NC(=O)CCN4CCOCC4)cc3CC(=O)N([C@@H](C)CO)C[C@@H]2C)cc1 | inactive | inactive | inactive
C[C@@H]1CN([C@@H](C)CO)C(=O)c2cccc(NC(=O)Nc3ccc4c(c3)OCO4)c2O[C@@H]1CN(C)Cc1ccc(C(=O)Nc2ccccc2N)cc1 | inactive | inactive | inactive
O=C1OCC=C[C@H]2O[C@@]34C=CCN(CCN5CCOCC5)C(=O)[C@H]3N(CCCO)C(=O)[C@@H]4[C@@H]12 | inactive | inactive | inactive
COc1ccc(COC[C@@H](C)N2C[C@H](C)[C@H](CN(C)S(=O)(=O)c3ccc(Cl)cc3)Oc3ccc(NC(=O)NC(C)C)cc3C2=O)cc1 | inactive | inactive | inactive
Cc1ccc(-c2cnc3c(c2)C(=O)N([C@@H](C)CO)C[C@@H](C)[C@@H](CN(C)C(=O)Cc2cccnc2)O3)cc1 | inactive | inactive | inactive
Cc1c(N)nc([C@H](CC(N)=O)NC[C@H](N)C(N)=O)nc1C(=O)N[C@H](C(=O)N[C@H](C)[C@@H](O)[C@H](C)C(=O)N[C@H](C(=O)NCCc1nc(-c2nc(C(=O)NCCCNCCCCN)cs2)cs1)[C@@H](C)O)[C@@H](O[C@@H]1O[C@@H](CO)[C@@H](O)[C@H](O)[C@@H]1O[C@@H]1O[C@H](CO)[C@@H](O)[C@H](OC(N)=O)[C@@H]1O)c1c[nH]cn1 | active | inactive | active
O=C(OCc1ccccc1)c1ccccc1 | inactive | active | inactive
C[C@@H]1CCCCO[C@@H](CN(C)S(=O)(=O)c2cccs2)[C@H](C)CN([C@@H](C)CO)C(=O)c2cc(NC(=O)Nc3ccc(C(F)(F)F)cc3)ccc2O1 | inactive | inactive | inactive
C[C@@H]1CCCCO[C@@H](CN(C)C(=O)Nc2ccccc2)[C@H](C)CN([C@@H](C)CO)C(=O)c2cc(NC(=O)c3ccncc3)ccc2O1 | inactive | inactive | inactive

SMILES | cytotoxicity call (HSkMC) | cytotoxicity call (HepG2) | growth inhibition call (S. aureus RN4220)
O=c1cc[nH]c(=S)[nH]1 | inactive | inactive | inactive
C[C@H]1CCCCO[C@H](CN(C)C(=O)CCC(F)(F)F)[C@@H](C)CN([C@@H](C)CO)C(=O)c2cc(NC(=O)CCC(F)(F)F)ccc2O1 | inactive | inactive | inactive
C[C@@H]1CN([C@@H](C)CO)C(=O)c2cc(NC(=O)Nc3ccc(F)cc3)ccc2O[C@@H](C)CCCCO[C@H]1CN(C)C(=O)C1CCCCC1 | inactive | inactive | inactive
C[C@H]1CN([C@@H](C)CO)C(=O)CCCn2cc(nn2)CO[C@@H]1CN(C)C(=O)Nc1cccc(C(F)(F)F)c1 | inactive | inactive | inactive
CN(C)c1nc2cc(Cl)ccc2o1 | inactive | inactive | inactive
C[C@@H]1CN([C@H](C)CO)C(=O)c2cc(C#C[C@@H](C)O)cnc2O[C@H]1CN(C)Cc1cncnc1 | inactive | inactive | inactive
O=C(C[C@H]1C=C[C@H](NS(=O)(=O)c2ccccc2F)[C@@H](CO)O1)NCCCN1CCOCC1 | inactive | inactive | inactive
Cn1c(=O)[nH]c(=O)c2c(=O)cc[nH]c21 | inactive | inactive | inactive
COCCNC(=O)C[C@@H]1C[C@H]2c3cc(NC(=O)CN(C)C)ccc3O[C@H]2[C@H](CO)O1 | inactive | inactive | inactive
Cc1ccc(C(=O)O)c(=O)[nH]1 | inactive | inactive | inactive
C[C@H]1C[C@@H]2[C@@H](C[C@@H]1C)N[C@@H]1C(=O)NC(=O)N[C@H]1N2C[C@H](O)[C@H](O)[C@H](O)CO | inactive | inactive | inactive
CCOC(=O)[C@H]1C/C=C/C[C@H](C(=O)OCC)C(=O)O[C@H]2[C@@H](OC)O[C@H](CO)[C@@H](OC(=O)Nc3ccc(OC)cc3)[C@@H]2OC1=O | inactive | inactive | inactive
C[C@@H]1CN([C@@H](C)CO)C(=O)Cc2cc(NS(=O)(=O)c3ccc(Cl)cc3)ccc2O[C@H]1CN(C)C | inactive | inactive | inactive
CN1C[C@@H]2CN(C(=O)c3ccnn3C)C[C@H]2C1=O | inactive | inactive | inactive
C[C@@H]1CN([C@H](C)CO)C(=O)c2cc(NC(=O)Nc3ccc(F)cc3)ccc2O[C@@H](C)CCCCO[C@H]1CN(C)S(=O)(=O)c1ccccc1 | inactive | inactive | inactive
COc1cccc(S(=O)(=O)N(C)C[C@H]2Oc3cc(C#CCC(C)C)ccc3S(=O)(=O)N([C@@H](C)CO)C[C@H]2C)c1 | inactive | inactive | inactive
C[C@@H]1CN([C@H](C)CO)C(=O)c2cc(-c3cccc(C(=O)N(C)C)c3)cnc2O[C@@H]1CN(C)S(=O)(=O)c1cccc(F)c1 | inactive | inactive | inactive
C[C@@H]1CCCCO[C@@H](CN(C)C(=O)Nc2ccccc2)[C@@H](C)CN([C@@H](C)CO)C(=O)c2cc(NC(=O)Nc3ccc4c(c3)OCO4)ccc2O1 | inactive | inactive | inactive
Cc1cc(C)c(/N=c2\scc(C)n2Cc2ccccc2)c(C)c1 | inactive | inactive | inactive

SMILES | cytotoxicity call (HSkMC) | cytotoxicity call (HepG2) | growth inhibition call (S. aureus RN4220)
C[C@H](CO)N1C[C@H](C)[C@@H](CN(C)S(C)(=O)=O)Oc2cc(C#Cc3ccccc3)ccc2S1(=O)=O | inactive | inactive | inactive
COc1ccc(CN(C)C[C@H]2Oc3ccc(NC(=O)CCN4CCOCC4)cc3C(=O)N([C@H](C)CO)C[C@@H]2C)cc1 | inactive | inactive | inactive
C[C@H](CO)N1C[C@H](C)[C@H](CN(C)S(=O)(=O)c2ccccc2)OCCCC[C@H](C)Oc2ccc(NC(=O)Nc3ccc4c(c3)OCO4)cc2C1=O | inactive | inactive | inactive
C[C@@H]1CN([C@H](C)CO)C(=O)c2cccc(NC(=O)c3cnccn3)c2O[C@H]1CN(C)C(=O)NC1CCCCC1 | inactive | inactive | inactive
Cn1nnnc1SCC1=C(C(=O)[O-])N2C(=O)C(NC(=O)C(O)c3ccccc3)C2SC1.[Na+] (stereo not drawn) | inactive | inactive | active
C[C@@H]1CCCCO[C@H](CN(C)Cc2ccc(C(F)(F)F)cc2)[C@@H](C)CN([C@@H](C)CO)C(=O)c2cc(NC(=O)Nc3ccccc3)ccc2O1 | inactive | active | inactive
COc1cccc(S(=O)(=O)Nc2ccc3c(c2)OC[C@H](C)N(C(=O)Cc2cccnc2)C[C@@H](C)[C@@H](OC)CN(C)C3=O)c1 | inactive | inactive | inactive
C[C@@H]1CCCCO[C@H](CN(C)C(=O)Nc2ccc(F)cc2)[C@@H](C)CN([C@@H](C)CO)C(=O)c2cc(NC(=O)Nc3ccccc3)ccc2O1 | inactive | inactive | inactive
COc1ccc(-c2cccc(-c3nc(C(=O)NCC(F)(F)F)cc4c3[C@@H](CCO)N([S@](=O)C(C)(C)C)C4)c2)cc1 | inactive | inactive | inactive
Cn1nnnc1S[C@H]1CCNC1 | inactive | inactive | inactive
O=C(N[C@@H]1C=C[C@H](CC(=O)N2CCOCC2)O[C@H]1CO)c1ccc2c(c1)OCO2 | inactive | inactive | inactive
CC(C)CC#Cc1cnc2c(c1)C(=O)N([C@@H](C)CO)C[C@H](C)[C@@H](CN(C)S(=O)(=O)c1cn(C)cn1)O2 | inactive | inactive | inactive
C[C@@H]1CN([C@H](C)CO)C(=O)c2cccc(NC(=O)c3ccc(-c4nccs4)cc3)c2O[C@@H]1CN(C)S(=O)(=O)c1cn(C)cn1 | inactive | inactive | inactive
C=C[C@@]1(C)CC(=O)[C@]2(O)[C@@]3(C)[C@@H](O)CCC(C)(C)[C@@H]3[C@H](O)[C@H](OC(C)=O)[C@@]2(C)O1 | inactive | inactive | inactive
CN(Cc1cnc2nc(N)nc(N)c2n1)c1ccc(C(=O)N[C@@H](CCC(=O)O)C(=O)O)cc1 | inactive | active | inactive
Cc1noc(C)c1NC(=O)N(C)C[C@H]1Oc2c(NC(=O)c3cnccn3)cccc2C(=O)N([C@@H](C)CO)C[C@@H]1C | inactive | inactive | inactive
C[C@@H]1CN([C@H](C)CO)C(=O)Cc2cc(NC(=O)Nc3ccccc3)ccc2O[C@@H]1CN(C)Cc1ccc(C(F)(F)F)cc1 | active | active | inactive
C[C@@H]1CN([C@H](C)CO)C(=O)c2cccc(NC(=O)c3nc4ccccc4s3)c2O[C@H]1CN(C)Cc1ccc(-c2ccccc2)cc1 | inactive | inactive | inactive
